The list shows a part of the results.
target: T1, MBP-FoxP1dN (Mus musculus, UniProt P58462 326-579); assay: PD-seq (MBP pull-down with sequencing); 20 mM Tris-HCl pH 7.5, 100 mM NaCl, 1.5 mM MgCl2, 0.4 uM protein, 0.1 uM dsDNA library, 30 min, room temperature, amylose pull-down; high values mean tight binding; conditions: protein: recombinant; tags: His6-MBP; chain copies: 2; dsDNA, one strand shown
T1 sequence: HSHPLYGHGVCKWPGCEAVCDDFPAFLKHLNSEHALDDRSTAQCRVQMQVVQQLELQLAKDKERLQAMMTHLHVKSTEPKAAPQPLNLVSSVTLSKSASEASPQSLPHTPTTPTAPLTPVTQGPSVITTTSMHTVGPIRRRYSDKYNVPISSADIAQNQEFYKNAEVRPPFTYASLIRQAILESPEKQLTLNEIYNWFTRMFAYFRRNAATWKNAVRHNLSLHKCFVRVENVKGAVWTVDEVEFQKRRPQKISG
Procedure, shortened: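 E. coli-expressed mouse FoxP3 or FoxP1 fragment, N-terminus removed and tagged with His6-MBP, was used at 0.4 µM against 0.1 µM of a Klenow-filled degenerate double-stranded DNA library. After 30 min at room temperature in Tris pH 7.5 buffer with NaCl and MgCl2, complexes were pulled down on amylose resin and washed three times. Binding is pull-down over input reads-per-million enrichment from pooled replicates of the proteinase K-released, PCR-barcoded, Illumina-sequenced DNA.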

| Sequence | binding signal |
| --- | --- |
| GATGATTGTTCTCCCAGCTGATGAATTCGGGAGTTCGAGTAAACAAATTTTCCTAATCTTTCTGTTCAAGCGCCATCTAC | 0.811 RPM ratio (pull-down/input) |
| GATGATTGTTCTCCCAGCTGATGAATTCTCAATATCGAGTAAACAAATTTTCCTAATCTTTCTGTTCAAGCGCCATCTAC | 1.11 RPM ratio (pull-down/input) |
| GATGATTGTTCTCCCAGCTGATGAATTCTACCTGTCGAGTAAACAAATTTTCCTAATCTTTCTGTTCAAGCGCCATCTAC | 0.805 RPM ratio (pull-down/input) |
| GATGATTGTTCTCCCAGCTGATGAATTCAAGGGATCGAGTAAACAAATTTTCCTAATCTTTCTGTTCAAGCGCCATCTAC | 0.837 RPM ratio (pull-down/input) |
| GATGATTGTTCTCCCAGCTGATGAATTCGGACGATCGAGTAAACAAATTTTCCTAATCTTTCTGTTCAAGCGCCATCTAC | 0.816 RPM ratio (pull-down/input) |
| GATGATTGTTCTCCCAGCTGATGAATTGTCGACGTCGAGTAAACAAATTTTCCTAATCTTTCTGTTCAAGCGCCATCTAC | 0.98 RPM ratio (pull-down/input) |
| GATGATTGTTCTCCCAGCTGATGAATTTGTTTGATCGAGTAAACAAATTTTCCTAATCTTTCTGTTCAAGCGCCATCTAC | 1.47 RPM ratio (pull-down/input) |
| GATGATTGTTCTCCCAGCTGATGAATTGGACAGATCGAGTAAACAAATTTTCCTAATCTTTCTGTTCAAGCGCCATCTAC | 0.82 RPM ratio (pull-down/input) |
| GATGATTGTTCTCCCAGCTGATGAATTCGATAATTCGAGTAAACAAATTTTCCTAATCTTTCTGTTCAAGCGCCATCTAC | 0.953 RPM ratio (pull-down/input) |
| GATGATTGTTCTCCCAGCTGATGAATTTTGTCTCTCGAGTAAACAAATTTTCCTAATCTTTCTGTTCAAGCGCCATCTAC | 0.968 RPM ratio (pull-down/input) |
| GATGATTGTTCTCCCAGCTGATGAATTAATCATGTCGAGTAAACAAATTTTCCTAATCTTTCTGTTCAAGCGCCATCTAC | 0.997 RPM ratio (pull-down/input) |
| GATGATTGTTCTCCCAGCTGATGAATTTGTCTCATCGAGTAAACAAATTTTCCTAATCTTTCTGTTCAAGCGCCATCTAC | 1.19 RPM ratio (pull-down/input) |
| GATGATTGTTCTCCCAGCTGATGAATTCGCGCGCTCGAGTAAACAAATTTTCCTAATCTTTCTGTTCAAGCGCCATCTAC | 0.909 RPM ratio (pull-down/input) |
| GATGATTGTTCTCCCAGCTGATGAATTACAATCTTCGAGTAAACAAATTTTCCTAATCTTTCTGTTCAAGCGCCATCTAC | 1.33 RPM ratio (pull-down/input) |
| GATGATTGTTCTCCCAGCTGATGAATTGTAAAAGTCGAGTAAACAAATTTTCCTAATCTTTCTGTTCAAGCGCCATCTAC | 0.943 RPM ratio (pull-down/input) |
| GATGATTGTTCTCCCAGCTGATGAATTCAGTTGGTCGAGTAAACAAATTTTCCTAATCTTTCTGTTCAAGCGCCATCTAC | 0.951 RPM ratio (pull-down/input) |

| Sequence | binding signal |
| --- | --- |
| GATGATTGTTCTCCCAGCTGATGAATTAGGAGCATCGAGTAAACAAATTTTCCTAATCTTTCTGTTCAAGCGCCATCTAC | 1.07 RPM ratio (pull-down/input) |
| GATGATTGTTCTCCCAGCTGATGAATTAGATCGGTCGAGTAAACAAATTTTCCTAATCTTTCTGTTCAAGCGCCATCTAC | 0.789 RPM ratio (pull-down/input) |
| GATGATTGTTCTCCCAGCTGATGAATTTCCTGACTCGAGTAAACAAATTTTCCTAATCTTTCTGTTCAAGCGCCATCTAC | 0.753 RPM ratio (pull-down/input) |
| GATGATTGTTCTCCCAGCTGATGAATTTCTTCCATCGAGTAAACAAATTTTCCTAATCTTTCTGTTCAAGCGCCATCTAC | 0.861 RPM ratio (pull-down/input) |
| GATGATTGTTCTCCCAGCTGATGAATTTCGATATTCGAGTAAACAAATTTTCCTAATCTTTCTGTTCAAGCGCCATCTAC | 0.941 RPM ratio (pull-down/input) |
| GATGATTGTTCTCCCAGCTGATGAATTAGTGTGTTCGAGTAAACAAATTTTCCTAATCTTTCTGTTCAAGCGCCATCTAC | 1.35 RPM ratio (pull-down/input) |
| GATGATTGTTCTCCCAGCTGATGAATTGAAAATCTCGAGTAAACAAATTTTCCTAATCTTTCTGTTCAAGCGCCATCTAC | 0.791 RPM ratio (pull-down/input) |
| GATGATTGTTCTCCCAGCTGATGAATTTCTGCCTTCGAGTAAACAAATTTTCCTAATCTTTCTGTTCAAGCGCCATCTAC | 0.937 RPM ratio (pull-down/input) |
| GATGATTGTTCTCCCAGCTGATGAATTAGACCGGTCGAGTAAACAAATTTTCCTAATCTTTCTGTTCAAGCGCCATCTAC | 0.822 RPM ratio (pull-down/input) |
| GATGATTGTTCTCCCAGCTGATGAATTCCCATTATCGAGTAAACAAATTTTCCTAATCTTTCTGTTCAAGCGCCATCTAC | 0.922 RPM ratio (pull-down/input) |
| GATGATTGTTCTCCCAGCTGATGAATTGAAGAAATCGAGTAAACAAATTTTCCTAATCTTTCTGTTCAAGCGCCATCTAC | 1.01 RPM ratio (pull-down/input) |
| GATGATTGTTCTCCCAGCTGATGAATTTACAAACTCGAGTAAACAAATTTTCCTAATCTTTCTGTTCAAGCGCCATCTAC | 1.47 RPM ratio (pull-down/input) |
| GATGATTGTTCTCCCAGCTGATGAATTCTTAAAATCGAGTAAACAAATTTTCCTAATCTTTCTGTTCAAGCGCCATCTAC | 0.935 RPM ratio (pull-down/input) |
| GATGATTGTTCTCCCAGCTGATGAATTTACGCGGTCGAGTAAACAAATTTTCCTAATCTTTCTGTTCAAGCGCCATCTAC | 1.04 RPM ratio (pull-down/input) |
| GATGATTGTTCTCCCAGCTGATGAATTCATCAACTCGAGTAAACAAATTTTCCTAATCTTTCTGTTCAAGCGCCATCTAC | 1.03 RPM ratio (pull-down/input) |

Source: article PMC12820563, “FoxP3 forms a head-to-head dimer in vivo and stabilizes its multimerization on adjacent microsatellites”
